{"source": "the supplement of paper PMC3334620", "note": "Over roughly 33,000 sequences, “E-score (-0.5 to 0.5)” has its median near -0.012; the highest 2% begin near 0.29. The list shows a part of the results."}
{"molecular_target": "T1, Ybr033w (UniProt P38073)", "T1 sequence": "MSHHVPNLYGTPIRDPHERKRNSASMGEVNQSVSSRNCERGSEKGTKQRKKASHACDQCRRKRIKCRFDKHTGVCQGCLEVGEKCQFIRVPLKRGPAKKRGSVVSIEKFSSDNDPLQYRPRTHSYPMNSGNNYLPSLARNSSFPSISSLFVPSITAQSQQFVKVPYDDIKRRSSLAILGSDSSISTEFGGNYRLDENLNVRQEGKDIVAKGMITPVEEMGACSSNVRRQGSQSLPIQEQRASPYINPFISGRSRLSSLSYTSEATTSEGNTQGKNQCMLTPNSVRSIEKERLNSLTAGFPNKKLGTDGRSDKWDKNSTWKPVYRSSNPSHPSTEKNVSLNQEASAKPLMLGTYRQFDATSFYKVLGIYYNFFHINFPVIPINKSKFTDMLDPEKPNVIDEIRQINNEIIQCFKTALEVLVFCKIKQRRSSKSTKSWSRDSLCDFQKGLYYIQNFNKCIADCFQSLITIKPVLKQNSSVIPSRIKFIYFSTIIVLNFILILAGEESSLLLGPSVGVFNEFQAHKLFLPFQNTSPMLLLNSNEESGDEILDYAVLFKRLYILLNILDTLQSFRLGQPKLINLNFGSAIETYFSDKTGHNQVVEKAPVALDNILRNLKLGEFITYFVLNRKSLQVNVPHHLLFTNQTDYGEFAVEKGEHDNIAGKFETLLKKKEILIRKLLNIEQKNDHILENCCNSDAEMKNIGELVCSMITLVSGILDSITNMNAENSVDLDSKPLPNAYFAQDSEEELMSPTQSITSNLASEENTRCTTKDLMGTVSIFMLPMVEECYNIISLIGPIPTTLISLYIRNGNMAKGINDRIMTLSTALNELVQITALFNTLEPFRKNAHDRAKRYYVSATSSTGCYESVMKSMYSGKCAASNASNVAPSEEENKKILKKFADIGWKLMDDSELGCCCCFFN", "assay": "PBM E-score (8-mer binding enrichment) (E-score (-0.5 to 0.5)); higher = stronger / more preferred TF binding; most listed sequences are background and not binding sites", "settings": "protein concentration: 200 nM; construct: GST-full length", "procedure": "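Universal 'all 10-mer' protein binding microarrays (Agilent AMADID 015681) probed with GST-tagged S. cerevisiae TFs (full-length or DBD) made by in vitro transcription/translation (PURExpress), about 100-200 nM. Bound TF was detected with fluorescent anti-GST. Each ungapped 8-mer (which stands for itself and its reverse complement) is scored by the PBM enrichment score (E-score), a modified Wilcoxon-Mann-Whitney statistic from -0.5 to +0.5, computed with the Universal PBM Analysis Suite. Scale: above 0.35 generally sequence-specific binding.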"}
{"sequence": "GCGGTGAC", "PBM E-score": -0.0896}
{"sequence": "TCTGCGAA", "PBM E-score": -0.214}
{"sequence": "ACAGTTCT", "PBM E-score": 0.0471}
{"sequence": "CGAGCAAG", "PBM E-score": -0.15}
{"sequence": "ACGTGTCA", "PBM E-score": -0.0785}
{"sequence": "AAGTGAGA", "PBM E-score": 0.017}
{"sequence": "CGCTCGTA", "PBM E-score": 0.0896}
{"sequence": "TAACTGCA", "PBM E-score": 0.162}
{"sequence": "CTACAATA", "PBM E-score": 0.164}
{"sequence": "TAGCGGGA", "PBM E-score": -0.122}
{"sequence": "GCTACAAC", "PBM E-score": 0.0399}
{"sequence": "TCGATGAA", "PBM E-score": 0.0419}
{"sequence": "ATCATCAA", "PBM E-score": 0.246}
{"sequence": "ATTCTCTC", "PBM E-score": -0.0621}
{"sequence": "GTCCCTCA", "PBM E-score": -0.31}
{"sequence": "CGGTCTCA", "PBM E-score": -0.125}
{"sequence": "GTCAAGCA", "PBM E-score": -0.187}
{"sequence": "AGTTAAAT", "PBM E-score": 0.121}
{"sequence": "ATTCAACC", "PBM E-score": -0.0157}
{"sequence": "AGTCGCTG", "PBM E-score": -0.108}
{"sequence": "TAAGTGGA", "PBM E-score": 0.152}
{"sequence": "CCGGAAGC", "PBM E-score": 0.0751}
{"sequence": "ATCTCCAA", "PBM E-score": 0.198}
{"sequence": "ACAGTAAG", "PBM E-score": 0.0874}
{"sequence": "CTATATTC", "PBM E-score": 0.215}
{"sequence": "ACGAGGCT", "PBM E-score": -0.0943}
{"sequence": "CTAATGGA", "PBM E-score": 0.0991}
{"sequence": "CCCCGATC", "PBM E-score": -0.36}
{"sequence": "GGGCATGA", "PBM E-score": -0.261}
{"sequence": "GTGTTTTA", "PBM E-score": 0.127}
{"sequence": "CCTCCGGA", "PBM E-score": -0.0985}
{"sequence": "AACGAGGT", "PBM E-score": -0.0684}
{"sequence": "ATTAACCA", "PBM E-score": 0.0788}
{"sequence": "AACACCAG", "PBM E-score": -0.148}
{"sequence": "CCGAGCAG", "PBM E-score": -0.32}
{"sequence": "TTTCAAAA", "PBM E-score": 0.253}
{"sequence": "AACTGGTA", "PBM E-score": -0.0156}
{"sequence": "TAGGGGGA", "PBM E-score": -0.3}
{"sequence": "GTTCCGAA", "PBM E-score": 0.29}
{"sequence": "AGTACACT", "PBM E-score": -0.00323}
{"sequence": "TCAGCAGA", "PBM E-score": -0.126}
{"sequence": "ACCGCTTC", "PBM E-score": -0.071}
{"sequence": "CCAGGTGA", "PBM E-score": -0.0761}
{"sequence": "AGGGGGAC", "PBM E-score": -0.353}
{"sequence": "CCAATCTC", "PBM E-score": 0.0623}
{"sequence": "ACCTAACC", "PBM E-score": 0.0922}
{"sequence": "ATGGTATG", "PBM E-score": -0.0322}
{"sequence": "CCAAATAA", "PBM E-score": 0.118}
{"sequence": "GTATCTTA", "PBM E-score": 0.213}
{"sequence": "AAATCAAG", "PBM E-score": 0.15}
{"sequence": "ACATGACA", "PBM E-score": 0.148}
{"sequence": "CTTTCTCA", "PBM E-score": 0.0734}
{"sequence": "GAAAAAAC", "PBM E-score": 0.265}
{"sequence": "ATAATGAT", "PBM E-score": 0.203}
{"sequence": "CTTGATGC", "PBM E-score": -0.0583}
{"sequence": "AGATGGAG", "PBM E-score": 0.0858}
{"sequence": "AGGTGCCA", "PBM E-score": -0.0797}
{"sequence": "GAGTAGGC", "PBM E-score": -0.113}
{"sequence": "CACCTGGC", "PBM E-score": -0.254}
{"sequence": "GCGGTAGC", "PBM E-score": -0.068}
{"sequence": "ATACCACA", "PBM E-score": 0.0738}
{"sequence": "ATACGGTA", "PBM E-score": 0.125}
{"sequence": "TCGGCAGA", "PBM E-score": 0.00291}
{"sequence": "ACCCAACC", "PBM E-score": -0.0306}
{"sequence": "AAGAACTT", "PBM E-score": 0.212}
{"sequence": "GAGACGAA", "PBM E-score": -0.00236}
{"sequence": "CGAGACCC", "PBM E-score": -0.167}
{"sequence": "CGTGTTCC", "PBM E-score": 0.0674}
{"sequence": "CTTCGTTC", "PBM E-score": 0.00337}
{"sequence": "GCGTCTCC", "PBM E-score": -0.241}
{"sequence": "CCGCTAAG", "PBM E-score": -0.131}
{"sequence": "CGGGCCCG", "PBM E-score": -0.216}
{"sequence": "AGCTCCGA", "PBM E-score": 0.0238}
{"sequence": "CAGGCCAC", "PBM E-score": -0.179}
{"sequence": "AGTAGATG", "PBM E-score": 0.135}
{"sequence": "CAGACGCG", "PBM E-score": -0.191}
{"sequence": "AGGGGTAC", "PBM E-score": -0.205}
{"sequence": "CTATTCAA", "PBM E-score": 0.0501}
{"sequence": "GTGACACA", "PBM E-score": -0.013}
{"sequence": "GGGAGTAA", "PBM E-score": 0.172}
{"sequence": "ACCGGGAA", "PBM E-score": 0.0827}
{"sequence": "AGCACGCG", "PBM E-score": -0.165}
{"sequence": "ACTCATTG", "PBM E-score": -0.128}
{"sequence": "AGCTTGGC", "PBM E-score": -0.295}
{"sequence": "GGGGCCAA", "PBM E-score": -0.123}
{"sequence": "AGAGCTGG", "PBM E-score": -0.0335}
{"sequence": "GGAGCCCA", "PBM E-score": -0.253}
{"sequence": "GACTGTAA", "PBM E-score": -0.0708}
{"sequence": "GCCTTTGA", "PBM E-score": -0.00064}
{"sequence": "ACTTAGGA", "PBM E-score": -0.0384}
{"sequence": "GTAGTTAA", "PBM E-score": 0.13}
{"sequence": "AACGGCTT", "PBM E-score": -0.052}
{"sequence": "GCAGGTGA", "PBM E-score": -0.221}
{"sequence": "CTCATGTC", "PBM E-score": -0.153}
{"sequence": "AGCCATGG", "PBM E-score": -0.158}
{"sequence": "AGCCTTCC", "PBM E-score": -0.0989}
{"sequence": "ATCGGTTC", "PBM E-score": -0.0187}
{"sequence": "TACGGCTA", "PBM E-score": -0.114}
{"sequence": "CAGATGAG", "PBM E-score": 0.0164}
{"sequence": "CCGATCAC", "PBM E-score": 0.171}
{"sequence": "CTAGGGCC", "PBM E-score": -0.175}
{"sequence": "TAAACCGA", "PBM E-score": -0.0166}
{"sequence": "CGTGGGGA", "PBM E-score": -0.131}
{"sequence": "GTTCGTCA", "PBM E-score": -0.135}
{"sequence": "AGCCCTGC", "PBM E-score": -0.128}
{"sequence": "AGGGCCAT", "PBM E-score": -0.127}
{"sequence": "ATACCCTA", "PBM E-score": 0.168}
{"sequence": "CGTTGCAA", "PBM E-score": 0.0537}
{"sequence": "AATCTCTA", "PBM E-score": 0.241}
